Variants at the background level are over-represented here.
B1: TPR 5TU (parent)
chain: GGAUCUUCUCGAUCUAACAAAAAAGACAAAUCUGCCACAAAGCUUGAGAGCAUCUUCGGAUGCAGAGGCGGCAGCCUUCGGUGGCGCGAUAGCGCCAACGUUCUCAACUAUGACACGCAAAACGCGUGCUCCGUUGAAUGGAGUUUAUCAUG

Variants of: B1
Assay: polymerase ribozyme fitness, log enrichment relative to wild type (log ratio); higher = more active; in vitro selection for triplet polymerase activity
Procedure, shortened: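 A heterodimeric triplet polymerase ribozyme had each of its subunits mutagenized by PCR into a library, which was transcribed. One round of in vitro selection, done in triplicate, annealed each library with a biotinylated primer, its partner subunit and triplets, then incubated it frozen at −7 °C before gel excision of extended constructs, streptavidin-bead capture and RT-PCR. Fitness is the logarithm of genotype enrichment relative to wild-type enrichment, based on Illumina sequencing of inputs and outputs and inverse-variance-weighted replicate averages. A base-2 logarithm is used, and genotypes were kept only with ≥10 input reads and ≥1 read per output.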

Row | Variant | polymerase ribozyme fitness (log ratio)
1 | C27A G86U C118G A147U | ≤ -4.2
2 | C27A G86U U144A | ≤ -4.2
3 | C27A G88A C96A A97G G128U U135G U145A | ≤ -4.2
4 | C27A U31G G94U C96U G136A A142U A150C | ≤ -4.2
5 | C27A U33C G88C G141C | ≤ -4.2
6 | C27A U33G A39G A60C C93U U127C G140A | -4.14
7 | C27A U44A U55G A98U A121C | ≤ -4.2
8 | C27A U45A C87U A138C | ≤ -4.2
9 | C27A U53A A119C | ≤ -4.2
10 | C27A U55A C76U A98G | ≤ -4.2
11 | C27A U56A | -3.7
12 | C27A U78C C96U A142G U145C | ≤ -4.2
13 | C27A U78G A89G A91C G94A A115C C118U U134A | ≤ -4.2
14 | C27A U90G A107U | ≤ -4.2
15 | C27G A28C G48A U55A G68C C87U C108G | ≤ -4.2
16 | C27G A28G G65A C93U C95G G100A | ≤ -4.2
17 | C27G A28U A39U U55A G83C | ≤ -4.2
18 | C27G A28U U53A A66C C105U A106C | ≤ -4.2
19 | C27G A29C C43G G59C U61G C95G | ≤ -4.2
20 | C27G A29C C87G A121U | ≤ -4.2
21 | C27G A29U A30G G50C A52C C54A G71A C93A G128C | ≤ -4.2

Row | Variant | polymerase ribozyme fitness (log ratio)
22 | C27G A30G A39U C87A | ≤ -4.2
23 | C27G A30U A52G G59C | ≤ -4.2
24 | C27G A30U G84U C116G | ≤ -4.2
25 | C27G A37G C72A C105A | -4.13
26 | C27G A37U A52C C63U G70U C96U A120G A122U U148G | ≤ -4.2
27 | C27G A37U C54G A64U C76G A106G | ≤ -4.2
28 | C27G A39G G50C G58C C96G A98U | ≤ -4.2
29 | C27G A39U G74A C87G U102G | ≤ -4.2
30 | C27G A40G C87A C114U | ≤ -4.2
31 | C27G A40U C54G C85A C114A A147G | ≤ -4.2
32 | C27G A49C G136A | ≤ -4.2
33 | C27G A49G C85U U139C | ≤ -4.2
34 | C27G A49G G81A G92C | ≤ -4.2
35 | C27G A52C U53G C57G C85A G86C | ≤ -4.2
36 | C27G A52G G59C A91G C105G U109G | ≤ -4.2
37 | C27G A60C U77C A97U U135A | ≤ -4.2
38 | C27G A60G G62C G83C | ≤ -4.2
39 | C27G A60U G68C C108G | ≤ -4.2
40 | C27G A120G | ≤ -4.2
41 | C27G C32A A39C G50A G58C G62A C99A U109C U145G | ≤ -4.2
42 | C27G C32A C54G C57A G62A C69U G84A C108A | ≤ -4.2

Row | Variant | polymerase ribozyme fitness (log ratio)
43 | C27G C32G C51G U56A C76A A121C | ≤ -4.2
44 | C27G C35G A64U A73G C79A C85G A91U | ≤ -4.2
45 | C27G C35U G74U C118U U130A A137U | ≤ -4.2
46 | C27G C36A C76A A97U C103G G117U | ≤ -4.2
47 | C27G C36G A120U | ≤ -4.2
48 | C27G C38A G83C U104G C105U | ≤ -4.2
49 | C27G C38U A49C G65C C87G C114A A119G U145A | -4.07
50 | C27G C38U U55C A66G C76G U78C U90G | ≤ -4.2
51 | C27G C43U G50U G68C U90A G92A G100U U135G | ≤ -4.2
52 | C27G C51U G74A C93U C95G G136A U151A | ≤ -4.2
53 | C27G C51U G80C G86U | ≤ -4.2
54 | C27G C54A G74A C87G U102G | ≤ -4.2
55 | C27G C54U G86U A91C C125A U135G A137G | ≤ -4.2
56 | C27G C57A A91U C95U | ≤ -4.2
57 | C27G C57G C63G C93A | ≤ -4.2
58 | C27G C57G C87U G136A U146G | ≤ -4.2
59 | C27G C57U C96G C116U G117C | ≤ -4.2
60 | C27G C75G C93A C103G U134A | ≤ -4.2
61 | C27G C76A | -3.63
62 | C27G C76U G83U A115U C116A G140U U145G | ≤ -4.2
63 | C27G C85A U90G | ≤ -4.2

Row | Variant | polymerase ribozyme fitness (log ratio)
64 | C27G C85A U130G G136U U145A | ≤ -4.2
65 | C27G C87A | ≤ -4.2
66 | C27G C87G G133C | ≤ -4.2
67 | C27G C87U | -3.97
68 | C27G C95A G141C | -3.77
69 | C27G C108G | ≤ -4.2
70 | C27G C116U | ≤ -4.2
71 | C27G G34C A47C G80U G140C | ≤ -4.2
72 | C27G G34U G42C G71C C79U C85G C105U G117U | ≤ -4.2
73 | C27G G46A C85A C95A A97U A110G | ≤ -4.2
74 | C27G G48C G80A G81A A113G C118A C132U G136C A150G | ≤ -4.2
75 | C27G G50A C118A | ≤ -4.2
76 | C27G G50C C51U C79U C93U | ≤ -4.2
77 | C27G G59C G88C U104G U134A A138U | ≤ -4.2
78 | C27G G59U A60C A91U C105U U145C | ≤ -4.2
79 | C27G G59U C63A G65C U78A G88U | ≤ -4.2
80 | C27G G59U C69U A73G U145G | ≤ -4.2
81 | C27G G67C C85A | ≤ -4.2
82 | C27G G67C G141A A147U G152A | ≤ -4.2
83 | C27G G70A G74C | ≤ -4.2

From the RNAGym collection of RNA variant scans (doi:10.1073/pnas.2313332121)
